US20240425561A1 (Hoffmann-La Roche, published 2024)
Read-outs that look alike come from different tables or passages of the source. Blank lines part the entries; values can stand above or below the binder they belong to.

Legend:
Experiment in all cases: cell-based or functional assay
[1] = target: T1, IL-7 receptor (IL-7Ra/common gamma chain) on activated human CD4 T cells (human, UniProt P16871 21-459; P31785 23-369)
T1 sequence (looked up) 1: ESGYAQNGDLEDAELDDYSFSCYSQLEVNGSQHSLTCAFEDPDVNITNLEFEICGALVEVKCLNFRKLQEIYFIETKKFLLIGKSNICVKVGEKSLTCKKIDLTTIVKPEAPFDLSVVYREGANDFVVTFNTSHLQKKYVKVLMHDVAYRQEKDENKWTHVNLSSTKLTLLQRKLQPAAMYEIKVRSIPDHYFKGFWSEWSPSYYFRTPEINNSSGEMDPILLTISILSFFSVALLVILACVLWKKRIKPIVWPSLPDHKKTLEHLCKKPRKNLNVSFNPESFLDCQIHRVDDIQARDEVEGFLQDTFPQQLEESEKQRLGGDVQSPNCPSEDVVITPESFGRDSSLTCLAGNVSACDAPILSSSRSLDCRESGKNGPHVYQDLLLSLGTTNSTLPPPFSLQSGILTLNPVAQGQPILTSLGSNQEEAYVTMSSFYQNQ
T1 sequence (looked up) 2: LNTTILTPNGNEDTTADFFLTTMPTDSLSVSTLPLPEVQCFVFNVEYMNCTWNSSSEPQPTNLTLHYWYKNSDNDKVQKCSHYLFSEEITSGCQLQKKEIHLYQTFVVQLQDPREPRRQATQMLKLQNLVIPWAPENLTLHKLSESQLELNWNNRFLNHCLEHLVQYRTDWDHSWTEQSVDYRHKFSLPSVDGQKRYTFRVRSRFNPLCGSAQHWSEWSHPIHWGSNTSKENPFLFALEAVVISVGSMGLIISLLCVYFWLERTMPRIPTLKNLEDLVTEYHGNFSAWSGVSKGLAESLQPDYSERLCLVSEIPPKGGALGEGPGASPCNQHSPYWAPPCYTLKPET

[2] = target: T2, human PD-1 on activated CD4 T cells (human, UniProt Q15116 25-288)
[3] = target: T2, human PD-1 on activated CD4 T cells; remark: listed apart in the source
T2 sequence (Q15116 25-288 limits assumed): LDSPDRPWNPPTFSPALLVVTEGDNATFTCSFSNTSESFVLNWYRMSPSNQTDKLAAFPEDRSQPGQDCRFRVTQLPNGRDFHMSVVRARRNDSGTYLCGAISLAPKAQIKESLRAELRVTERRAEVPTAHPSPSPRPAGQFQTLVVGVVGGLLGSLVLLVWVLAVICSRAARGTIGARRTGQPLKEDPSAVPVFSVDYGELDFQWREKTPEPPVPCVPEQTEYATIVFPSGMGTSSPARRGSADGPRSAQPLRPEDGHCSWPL

Fold reduction in potency as EC50 [PD1^+]/EC50 [PD1^+ PD1-IL7wt] [1]: 0.56 fold | cis-activity as EC50 [PD1^- pre-blocked]/EC50 [PD1^+] [2]: 104 fold
B1: PD1-IL7 VAR21 partially glycosylated (other)
light: DIVMTQSPDSLAVSLGERATINCKASESVDTSDNSFIHWYQQKPGQSPKLLIYRSSTLESGVPDRFSGSGSGTDFTLTISSLQAEDVAVYYCQQNYDVPWTFGQGTKVEIKRTVAAPSVFIFPPSDEQLKSGTASVVCLLNNFYPREAKVQWKVDNALQSGNSQESVTEQDSKDSTYSLSSTLTLSKADYEKHKVYACEVTHQGLSSPVTKSFNRGEC
heavy 1: EVQLLESGGGLVQPGGSLRLSCAASGFSFSSYTMSWVRQAPGKGLEWVATISGGGRDIYYPDSVKGRFTISRDNSKNTLYLQMNSLRAEDTAVYYCVLLTGRVYFALDSWGQGTLVTVSSASTKGPSVFPLAPSSKSTSGGTAALGCLVKDYFPEPVTVSWNSGALTSGVHTFPAVLQSSGLYSLSSVVTVPSSSLGTQTYICNVNHKPSNTKVDKKVEPKSCDKTHTCPPCPAPEAAGGPSVFLFPPKPKDTLMISRTPEVTCVVVDVSHEDPEVKFNWYVDGVEVHNAKTKPREEQYNSTYRVVSVLTVLHQDWLNGKEYKCKVSNKALGAPIEKTISKAKGQPREPQVCTLPPSRDELTKNQVSLSCAVKGFYPSDIAVEWESNGQPENNYKTTPPVLDSDGSFFLVSKLTVDKSRWQQGNVFSCSVMHEALHNHYTQKSLSLSPG
heavy 2: EVQLLESGGGLVQPGGSLRLSCAASGFSFSSYTMSWVRQAPGKGLEWVATISGGGRDIYYPDSVKGRFTISRDNSKNTLYLQMNSLRAEDTAVYYCVLLTGRVYFALDSWGQGTLVTVSSASTKGPSVFPLAPSSKSTSGGTAALGCLVKDYFPEPVTVSWNSGALTSGVHTFPAVLQSSGLYSLSSVVTVPSSSLGTQTYICNVNHKPSNTKVDKKV[human IgG1 Fc with changes left out here]GGGGSGGGGSGGGGDCDIEGKDGKQYESVLMVSIDQLLDSMKEIGSNCLNNEFNFFKRHICDANKEGMFLFRAARKLRQFLKMNSTGDFDLHLLKVSEETTILLNCAGQVKGRKPAALGEAQPTKSLEENKALKEQKKLNDLCFLKRLLQEIKTCWNKILMGTKEH

Fold reduction in potency as EC50 [PD1^+]/EC50 [PD1^+ PD1-IL7wt] [1]: 0.49 fold | cis-activity as EC50 [PD1^- pre-blocked]/EC50 [PD1^+] [2]: 77.2 fold | cis-activity as EC50 [PD1^- pre-blocked]/EC50 [PD1^+] [3]: 39 fold
B2: PD1-IL7 VAR21 fully glycosylated (other)
light: B1 light
heavy 1: B1 heavy 1
heavy 2: EVQLLESGGGLVQPGGSLRLSCAASGFSFSSYTMSWVRQAPGKGLEWVATISGGGRDIYYPDSVKGRFTISRDNSKNTLYLQMNSLRAEDTAVYYCVLLTGRVYFALDSWGQGTLVTVSSASTKGPSVFPLAPSSKSTSGGTAALGCLVKDYFPEPVTVSWNSGALTSGVHTFPAVLQSSGLYSLSSVVTVPSSSLGTQTYICNVNHKPSNTKVDKKV[human IgG1 Fc with changes left out here]GGGGSGGGGSGGGGDCDIEGKDGKQYESVLMVSIDQLLDSMKEIGSNCLNNEFNFFKRHICDANKEGMFLFRAARKLRQFLKMNSTGDFDLHLLKVSEETTILLNCTGQVKGRKPAALGEAQPTKSLEENKSLKEQKKLNDLCFLKRLLQEIKTCWNKILMGTKEH

cis-activity as EC50 [PD1^- pre-blocked]/EC50 [PD1^+] [3]: 0.1 fold
B3: Reference molecule 7 (other)
light: B1 light
heavy 1: EVQLLESGGGLVQPGGSLRLSCAASGFSFSSYTMSWVRQAPGKGLEWVATISGGGRDIYYPDSVKGRFTISRDNSKNTLYLQMNSLRAEDTAVYYCVLLTGRVYFALDSWGQGTLVTVSSASTKGPSVFPLAPSSKSTSGGTAALGCLVKDYFPEPVTVSWNSGALTSGVHTFPAVLQSSGLYSLSSVVTVPSSSLGTQTYICNVNHKPSNTKVDKKVEPKSCDKTHTCPPCPAPEAAGGPSVFLFPPKPKDTLMISRTPEVTCVVVDVSHEDPEVKFNWYVDGVEVHNAKTKPREEQYNSTYRVVSVLTVLHQDWLNGKEYKCKVSNKALGAPIEKTISKAKGQPREPQVCTLPPSRDELTKNQVSLSCAVKGFYPSDIAVEWESNGQPENNYKTTPPVLDSDGSFFLVSKLTVDKSRWQQGNVFSCSVMHEALHNHYTQKSLSLSPGK
heavy 2: EVQLLESGGGLVQPGGSLRLSCAASGFSFSSYTMSWVRQAPGKGLEWVATISGGGRDIYYPDSVKGRFTISRDNSKNTLYLQMNSLRAEDTAVYYCVLLTGRVYFALDSWGQGTLVTVSSASTKGPSVFPLAPSSKSTSGGTAALGCLVKDYFPEPVTVSWNSGALTSGVHTFPAVLQSSGLYSLSSVVTVPSSSLGTQTYICNVNHKPSNTKVDKKV[human IgG1 Fc with changes left out here]GGGGSGGGGSGGGGSDCDIEGKDGKQYESVLMVSIDQLLDSMKEIGSNSLNNEFNFFKRHISDANKEGMFLFRAARKLRQFLKMNSTGDFDLHLLKVSEGTTILLNSTGQVKGRKPAALGEAQPTKSLEENKSLKEQKKLNDLSFLKRLLQEIKTCWNKILMGTKEH

cis-activity as EC50 [PD1^- pre-blocked]/EC50 [PD1^+] [3]: 4.5 fold
B4: Reference molecule 8 (other)
light: B1 light
heavy 1: B3 heavy 1
heavy 2: EVQLLESGGGLVQPGGSLRLSCAASGFSFSSYTMSWVRQAPGKGLEWVATISGGGRDIYYPDSVKGRFTISRDNSKNTLYLQMNSLRAEDTAVYYCVLLTGRVYFALDSWGQGTLVTVSSASTKGPSVFPLAPSSKSTSGGTAALGCLVKDYFPEPVTVSWNSGALTSGVHTFPAVLQSSGLYSLSSVVTVPSSSLGTQTYICNVNHKPSNTKVDKKV[human IgG1 Fc with changes left out here]GGGGSGGGGSGGGGSDCDIEGKDGKQYESVLMVSIDQLLDSMKEIGSNCLNNEFNFFKRHICDANKEGMFLFRAARKLRQFLKMNSTGDFDLHLLKVSEGTTILLNCTGQVKGRKPAALGEAQPTKSLEENKSLKEQKKLNDLCFLKRLLQEIKTCHNKILMGTKEH
